Measured values from the supplement of paper PMC12217912.
Some of the results follow. Sequences were assembled here from the parent chain. Inactive controls read about 0.05.

B1: TEV protease; numbered along this chain (parent)
chain: MGESLFKGPRDYNPISSSICHLTNESDGHTTSLYGIGFGPFIITNKHLFRRNNGTLVVQSLHGVFKVKDTTTLQQHLVDGRDMIIIRMPKDFPPFPQKLKFREPQREERICLVTTNFQTKSMSSMVSDTSCTFPSGDGIFWKHWIQTKDGQCGSPLVSTRDGFIVGIHSASNFTNTNNYFTSVPKNFMELLTNQEAQQWVSGWRLNADSVLWGGHKVFMVKPEEPFQPVKEATQL

Variants of: B1
Test: raw area under fraction-flipped curve 0-4 h after induction (AUC4h, not background-subtracted), DNA-recorder readout of cleavage of the substrate (dimensionless); higher = more cleavage of the substrate by the protease variant
Settings: temperature: 34 °C; time window: 0-4 h after rhamnose induction
Procedure: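 In vivo DNA recorder in E. coli TOP10(DE3) ΔrhaA at 34 °C. Each TEVp single-site mutant (parent TEVp 0) is paired with a single-site variant of the 7-mer TEVs (canonical ENLYFQ|S). The substrate sits between flexible linkers in a Bxb1-sfGFP-TEVs-SsrA fusion, so cleavage stabilises Bxb1 and speeds flipping of a recombination array, read by NGS. The value is the raw area under the fraction-flipped curve over 0-4 h after rhamnose induction (AUC4h), with ≥20 reads per time point. It is not background-subtracted; inactive controls average about 0.047.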
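Further: Bxb1 expression induced with 0.2% (w/v) L-rhamnose at OD600 near 0.5, cultures sampled hourly, flipped fraction per protease–substrate barcode pair counted by paired-end Illumina sequencing.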

Variant: MGESLFKGPRDYNPISSSICHLTNESDGHTTSLYGIGFGPFIITNKHLFRRNNGTLVVQSLHGVFKVKDTTTLQQHLVDGRDMIIIRMPKDFPPFPQKLKFREPQREERICLVTTNFQTKSMSSMVSDTSCTFPSGDGIFWKHWIQTKDGQCGSPLVSTRDGFIVGIHSASNFTNTNNYFTSVPKNFMELLTNQEAQQWVSGWRLNADSVLWGGHKVFMVKPEEPFQPTKEATQL [V229T]
- area with substrate ENLYFAS: 0.0557
- area with substrate ENLYFFS: 0.0432
- area with substrate ENLYFGS: 0.0667
- area with substrate ENLYFIS: 0.0629
- area with substrate ENLYFKS: 0.0566
- area with substrate ENLYFLS: 0.0547
- area with substrate ENLYFWS: 0.0492

Variant: MGESLFKGPRDYNPISSSICHLTNESDGHTTSLYGIGFGPFIITNKHLFRRNNGTLVVQSLHGVFKVKDTTTLQQHLVDGRDMIIIRMPKDFPPFPQKLKFREPQREERICLVTTNFQTKSMSSMVSDTSCTFPSGDSIFWKHWIQTKDGQCGSPLVSTRDGFIVGIHSASNFTNTNNYFTSVPKNFMELLTNQEAQQWVSGWRLNADSVLWGGHKVFMVKPEEPFQPVKEATQL [G138S]
- area with substrate ENLYFAS: 0.0624
- area with substrate ENLYFES: 0.063
- area with substrate ENLYFHS: 0.05
- area with substrate ENLYFLS: 0.0541
- area with substrate ENLYFMS: 0.0453
- area with substrate ENLYFSS: 0.0706
- area with substrate ENLYFTS: 0.0448
- area with substrate ENLYFVS: 0.0629
- area with substrate ENLYFWS: 0.0544

Variant: MGESLFKGPRDYNPISSSICHLTNESDGHTTSLYGIGFGPFIITNKHLWRRNNGTLVVQSLHGVFKVKDTTTLQQHLVDGRDMIIIRMPKDFPPFPQKLKFREPQREERICLVTTNFQTKSMSSMVSDTSCTFPSGDGIFWKHWIQTKDGQCGSPLVSTRDGFIVGIHSASNFTNTNNYFTSVPKNFMELLTNQEAQQWVSGWRLNADSVLWGGHKVFMVKPEEPFQPVKEATQL [F49W]
- area with substrate ENLYFAS: 0.0619
- area with substrate ENLYFCS: 0.0486
- area with substrate ENLYFDS: 0.0508
- area with substrate ENLYFES: 0.0769
- area with substrate ENLYFFS: 0.0652
- area with substrate ENLYFHS: 0.0728
- area with substrate ENLYFKS: 0.0636
- area with substrate ENLYFLS: 0.0608
- area with substrate ENLYFMS: 0.0701
- area with substrate ENLYFNS: 0.0568
- area with substrate ENLYFPS: 0.0583
- area with substrate ENLYFRS: 0.0571
- area with substrate ENLYFSS: 0.055
- area with substrate ENLYFTS: 0.0571
- area with substrate ENLYFVS: 0.0392
- area with substrate ENLYFWS: 0.0477
- area with substrate ENLYFYS: 0.0563

Variant: MGESLFKGPRDYNPISSSICHLTNESDGHTTSLYGIGFGPFIITNKHLFRRNNGTLVVQSLHGVFKVKDTTTLQQHLVDGRDMIIIRMPKDFPPFPQKLKFREPQREERICLVTTNFQTKSMSSMVSDTSCTFPSGDGIFWKHWIQTKDGQCGSPLVSTRDGFIVGIHSAANFTNTNNYFTSVPKNFMELLTNQEAQQWVSGWRLNADSVLWGGHKVFMVKPEEPFQPVKEATQL [S171A]
- area with substrate ENLYFAS: 0.0619
- area with substrate ENLYFIS: 0.0484
- area with substrate ENLYFNS: 0.0613
- area with substrate ENLYFPS: 0.0542
- area with substrate ENLYFRS: 0.0608
- area with substrate ENLYFSS: 0.0706

Variant: MGESLFKGPRDYNPISSSICHLTNESDGHPTSLYGIGFGPFIITNKHLFRRNNGTLVVQSLHGVFKVKDTTTLQQHLVDGRDMIIIRMPKDFPPFPQKLKFREPQREERICLVTTNFQTKSMSSMVSDTSCTFPSGDGIFWKHWIQTKDGQCGSPLVSTRDGFIVGIHSASNFTNTNNYFTSVPKNFMELLTNQEAQQWVSGWRLNADSVLWGGHKVFMVKPEEPFQPVKEATQL [T30P]
- area with substrate ENLYFAS: 0.0555
- area with substrate ENLYFCS: 0.0707
- area with substrate ENLYFDS: 0.0524
- area with substrate ENLYFFS: 0.0641
- area with substrate ENLYFGS: 0.0502
- area with substrate ENLYFHS: 0.0561
- area with substrate ENLYFKS: 0.0665
- area with substrate ENLYFMS: 0.0625
- area with substrate ENLYFPS: 0.0499
- area with substrate ENLYFRS: 0.0561
- area with substrate ENLYFSS: 0.0409

Variant: MGESLFKGPRDYNPISSSICHLTNESDGHTTSLYGIGFGPFIITNKHLFRRNNGTLVVQSLHGVFKVKDTTTLKQHLVDGRDMIIIRMPKDFPPFPQKLKFREPQREERICLVTTNFQTKSMSSMVSDTSCTFPSGDGIFWKHWIQTKDGQCGSPLVSTRDGFIVGIHSASNFTNTNNYFTSVPKNFMELLTNQEAQQWVSGWRLNADSVLWGGHKVFMVKPEEPFQPVKEATQL [Q74K]
- area with substrate ENLYFAS: 0.0526
- area with substrate ENLYFES: 0.0656
- area with substrate ENLYFFS: 0.0685
- area with substrate ENLYFHS: 0.0626
- area with substrate ENLYFIS: 0.0561
- area with substrate ENLYFMS: 0.0589
- area with substrate ENLYFNS: 0.0204
- area with substrate ENLYFTS: 0.0649
- area with substrate ENLYFVS: 0.0603
- area with substrate ENLYFWS: 0.0444

Variant: MGESLFKGPRDYNPISSSICHLTNESDGHTTSLYGIGFGPFIITNKHLFRRNNGTLVVQSLHGVFKVKDTTTLQQHLVDGRDMIIIRMPKDFPPFPQKLKFREPQREERICLVTTNFQTKSMSSMVSDTSCTFPSGDGIFWKHWIQTKDGQCGSPLVSTRDGFIVGIHSASNFTNTNNYFTSVPKNFMELLTNQEAQQWVSGWRLNADSVAWGGHKVFMVKPEEPFQPVKEATQL [L211A]
- area with substrate ENLYFAS: 0.0566
- area with substrate ENLYFES: 0.0645
- area with substrate ENLYFFS: 0.061
- area with substrate ENLYFHS: 0.0577
- area with substrate ENLYFIS: 0.0654
- area with substrate ENLYFMS: 0.0584
- area with substrate ENLYFPS: 0.0581
- area with substrate ENLYFSS: 0.0451
- area with substrate ENLYFWS: 0.0462

Variant: MGESLFKGPRDYNPTSSSICHLTNESDGHTTSLYGIGFGPFIITNKHLFRRNNGTLVVQSLHGVFKVKDTTTLQQHLVDGRDMIIIRMPKDFPPFPQKLKFREPQREERICLVTTNFQTKSMSSMVSDTSCTFPSGDGIFWKHWIQTKDGQCGSPLVSTRDGFIVGIHSASNFTNTNNYFTSVPKNFMELLTNQEAQQWVSGWRLNADSVLWGGHKVFMVKPEEPFQPVKEATQL [I15T]
- area with substrate ENLYFAS: 0.0652
- area with substrate ENLYFCS: 0.0662
- area with substrate ENLYFDS: 0.0631
- area with substrate ENLYFES: 0.0562
- area with substrate ENLYFFS: 0.0675
- area with substrate ENLYFGS: 0.0466
- area with substrate ENLYFHS: 0.0595
- area with substrate ENLYFIS: 0.0522
- area with substrate ENLYFKS: 0.0574
- area with substrate ENLYFLS: 0.0574
- area with substrate ENLYFMS: 0.0656
- area with substrate ENLYFNS: 0.0738
- area with substrate ENLYFPS: 0.0566
- area with substrate ENLYFRS: 0.058
- area with substrate ENLYFSS: 0.0353
- area with substrate ENLYFTS: 0.0494
- area with substrate ENLYFVS: 0.0646
- area with substrate ENLYFWS: 0.0678
- area with substrate ENLYFYS: 0.0543

Variant: MGESLFKGPRDYNPISSSICHLTNESDGHTTSLYGIGFGPFIITNKHLFRRNNGTLVVQSRHGVFKVKDTTTLQQHLVDGRDMIIIRMPKDFPPFPQKLKFREPQREERICLVTTNFQTKSMSSMVSDTSCTFPSGDGIFWKHWIQTKDGQCGSPLVSTRDGFIVGIHSASNFTNTNNYFTSVPKNFMELLTNQEAQQWVSGWRLNADSVLWGGHKVFMVKPEEPFQPVKEATQL [L61R]
- area with substrate ENLYFAS: 0.0705
- area with substrate ENLYFCS: 0.0933
- area with substrate ENLYFDS: 0.0484
- area with substrate ENLYFES: 0.0663
- area with substrate ENLYFFS: 0.0737
- area with substrate ENLYFGS: 0.0482
- area with substrate ENLYFHS: 0.0531
- area with substrate ENLYFIS: 0.0556
- area with substrate ENLYFKS: 0.0613
- area with substrate ENLYFMS: 0.0596
- area with substrate ENLYFNS: 0.003
- area with substrate ENLYFPS: 0.057
- area with substrate ENLYFRS: 0.0637
- area with substrate ENLYFSS: 0.0583
- area with substrate ENLYFVS: 0.0599
- area with substrate ENLYFWS: 0.0456
- area with substrate ENLYFYS: 0.0628

Variant: MGESLFKGPRDYNPISSSICHLTNESDGHTTSLYGIGFGPFIITNKHLFRRNNGTLVVQSLHGVFKVKDTTTLQQHLVDGRDMIIIRMPKDFPPFPQKLKFREPQREERICLVTTNFQTKSMSSMVSDTSCTFPSGDGIFWKHWIQTKDGQCGSPLVSTRDGFIYGIHSASNFTNTNNYFTSVPKNFMELLTNQEAQQWVSGWRLNADSVLWGGHKVFMVKPEEPFQPVKEATQL [V165Y]
- area with substrate ENLYFAS: 0.0532
- area with substrate ENLYFCS: 0.0559
- area with substrate ENLYFFS: 0.0664
- area with substrate ENLYFGS: 0.0523
- area with substrate ENLYFIS: 0.0552
- area with substrate ENLYFLS: 0.0594
- area with substrate ENLYFMS: 0.064
- area with substrate ENLYFNS: 0.0346
- area with substrate ENLYFRS: 0.065
- area with substrate ENLYFSS: 0.0469
- area with substrate ENLYFTS: 0.0651
- area with substrate ENLYFWS: 0.051
- area with substrate ENLYFYS: 0.0426
